Reference: PubChem BioAssay AID1460 (National Center for Advancing Translational Sciences (NCATS), 2008)
In all, about 270,000 compounds went through this assay and about 5,800 (2.1%) were called active. Inconclusive means that the source gave no clear call. Such entries were picked first, then a sample of the others. The call rests on the fitted dose curve; in most records, active means well fitted inhibition curve with a large enough effect; inconclusive means small, poorly fitted or top-dose-only effect; inactive means flat fitted curve, though single readings scatter. Where the call is inconclusive, the potency comes from a doubtful curve fit.

Each molecule was assayed against Microtubule-associated protein tau (Homo sapiens) (UniProt P10636) (assay: qHTS for Inhibitors of Tau Fibril Formation, Thioflavin T Binding). Conditions: recombinant tau K18 P301L (four-repeat tau fragment), heparin-induced fibrillization, ThT fluorescence; series mostly up to 57.4 µM; activity, negative = inhibition: at the top concentration.
UniProt P10636, sequence (P10636 whole entry, looked up, the tested form may be a part): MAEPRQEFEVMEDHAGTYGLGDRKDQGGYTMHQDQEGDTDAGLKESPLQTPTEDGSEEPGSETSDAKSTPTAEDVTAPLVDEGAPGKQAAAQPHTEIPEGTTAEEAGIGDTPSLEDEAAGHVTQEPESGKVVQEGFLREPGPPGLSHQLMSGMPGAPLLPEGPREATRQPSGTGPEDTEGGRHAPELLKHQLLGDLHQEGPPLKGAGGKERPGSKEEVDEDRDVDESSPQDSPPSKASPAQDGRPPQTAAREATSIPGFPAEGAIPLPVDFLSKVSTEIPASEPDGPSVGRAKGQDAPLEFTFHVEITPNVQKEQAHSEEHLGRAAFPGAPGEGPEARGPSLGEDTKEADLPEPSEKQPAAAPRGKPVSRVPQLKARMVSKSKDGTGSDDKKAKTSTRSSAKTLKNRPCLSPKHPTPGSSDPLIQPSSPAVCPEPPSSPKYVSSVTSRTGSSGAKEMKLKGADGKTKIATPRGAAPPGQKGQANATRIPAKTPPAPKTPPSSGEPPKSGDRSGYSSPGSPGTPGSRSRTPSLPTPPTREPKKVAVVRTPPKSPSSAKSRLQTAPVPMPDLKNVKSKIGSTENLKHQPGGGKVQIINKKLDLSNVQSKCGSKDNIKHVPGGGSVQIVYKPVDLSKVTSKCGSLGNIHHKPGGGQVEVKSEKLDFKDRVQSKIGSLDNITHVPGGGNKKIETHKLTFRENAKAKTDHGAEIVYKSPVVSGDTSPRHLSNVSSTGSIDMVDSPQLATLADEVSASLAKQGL
Summary of the method: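 Heparin-induced (20 uM) aggregation of recombinant human K18 P301L tau, 15 uM unlabeled with 0.24 uM labeled, pH 7 acetate buffer, 6 hr at 37 C with compound. Fibrils quantified by 30 uM ThT fluorescence after 1 hr ambient incubation.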
Further: nearly all actives have a fitted effect of over 55% in size.
On the % scale 0 is the no-effect control and ±100 the full control effect; potency means the concentration at half of the fitted maximal effect; tags describe the fitted curve by direction and shape.

| Compound | Potency | activity, negative = inhibition |
| --- | --- | --- |
| COc1ccc(NCc2ccc([N+](=O)[O-])s2)cc1 | inconclusive: 12.6 µM [inhibitor, partial curve] |  |
| CNC(=O)/C(C#N)=C\c1cc(C)n(-c2ccc(N3CCOCC3)cc2)c1C |  | inactive: -6.25% |
| CC(=O)c1ccc2c3c(ccc(O)c13)CC2 | inconclusive: 12.6 µM [inhibitor, partial curve] |  |
| Cc1ccc(OCCNc2ccc(C(F)(F)F)cc2[N+](=O)[O-])cc1 | inconclusive: 1.78 µM [inhibitor, full curve, poor fit] |  |
| CCc1ccc2oc(-c3cc(NC(=O)c4cccs4)ccc3Cl)nc2c1 |  | inactive: -7.92% |
| Clc1ccc(N2N=C(c3cccs3)CC2c2ccco2)cc1 (stereo not given) | inconclusive: 22.4 µM [inhibitor, partial curve] |  |
| COc1cccc(C(=O)Nc2ccc3nc(SCCOc4ccccc4)sc3c2)c1 | inconclusive: 0.891 µM [inhibitor, full curve, poor fit] |  |
| Cc1cccc(C(C)(C)C)c1OCCn1ccnc1 |  | inactive: -14.2% |
| Cc1cccc(C)c1Nc1nnc(SC/C(O)=C(\C#N)c2nc3ccccc3[nH]2)s1 | inconclusive: 25.1 µM [inhibitor, partial curve] |  |
| Nc1nonc1OCCOCCOCCOc1nonc1N |  | inactive: 2.96% |
| COc1ccc(C(=O)c2c(C)c3cc(C)ccc3n2CC(O)CN2CCOCC2)cc1 (stereo not given) | inconclusive: 31.6 µM [inhibitor, single point] |  |
| C#CCOCCOCCOCCNc1nc(N2CCN(C(=O)C(Cc3cc4ccccc4[nH]3)n3cc(C(N)Cc4ccc(O)cc4)nn3)CC2)nc(N2CCN(C(=O)C(Cc3cc4ccccc4[nH]3)n3cc(C(N)Cc4ccc(O)cc4)nn3)CC2)n1 (stereo not given) | inconclusive: 35.5 µM [inhibitor, single point] |  |
| COc1cc(C(=O)Oc2cccc(Nc3ncnc4ccccc34)c2)cc(OC)c1OC | inconclusive: 20 µM [inhibitor, partial curve] |  |
| CCOC(=O)c1ccc(Nc2cc(C)nc(-c3ccccc3O)n2)cc1 | inconclusive: 6.31 µM [inhibitor, partial curve, poor fit] |  |
| Clc1nc2sccn2c1/C=N/n1cnc2ccccc21 | inconclusive: 3.55 µM [inhibitor, full curve] |  |
| CCOc1ccc(N(CC)C(=O)Cn2cnc3sc(C)c(S(=O)(=O)N4CCN(c5ncccn5)CC4)c3c2=O)cc1 | inconclusive: 44.7 µM [inhibitor, single point] |  |
| O=C(Nc1ccc2oc(-c3cccnc3)nc2c1)c1ccco1 | inconclusive: 7.94 µM [inhibitor, full curve] |  |
| Cc1cc(NS(=O)(=O)c2ccc(NC(=O)COc3cc(C)c(Br)cc3C(C)C)cc2)no1 | inconclusive: 31.6 µM [inhibitor, single point] |  |
| CC(C)CCNC(=O)c1ccc2nc(Cc3ccccc3)oc2c1 |  | inactive: -4.28% |
| O=C(NCC(c1cccnc1)N1CCc2ccccc21)c1ccc(Cl)cc1 (stereo not given) |  | inactive: 12% |
| Cc1ccc(-n2ncc(C(=O)NCCN3CCC(Cc4ccccc4)CC3)c2C2CCN(C(=O)OC(C)(C)C)CC2)cc1 | inconclusive: 1.12 µM [inhibitor, full curve, poor fit] |  |
| COc1ccc(NC2=C(Cl)C(=O)N(CCc3ccccc3)C2=O)c(OC)c1 | inconclusive: 22.4 µM [inhibitor, partial curve] |  |

| Compound | Potency | activity, negative = inhibition |
| --- | --- | --- |
| COc1ccc(/C(N)=N/OC(=O)Cc2ccc(OC)c(OC)c2)cc1 | inconclusive: 4.47 µM [inhibitor, partial curve, poor fit] |  |
| O=C(CSc1ncnc2c1cnn2-c1ccccc1)Nc1ccc2c(c1)OCO2 | inconclusive: 1.26 µM [inhibitor, full curve] |  |
| Cc1ccc2c(=O)cc(C(=O)Nc3sc4c(c3C(=O)NCc3cccnc3)CCCC4)oc2c1 | inconclusive: 14.1 µM [inhibitor, single point] |  |
| CCn1c(SCC(=O)Nc2c(C#N)cnn2-c2ccccc2)nnc1-c1cccs1 |  | inactive: -10.4% |
| Cc1cc(=O)c(C(=O)O)cn1-c1ccc(C(C)C)cc1 |  | inactive: -2.18% |
| Cc1c(/C=C(\CC(=O)O)c2nc3ccccc3s2)cc(C#N)n1C | inconclusive: 39.8 µM [inhibitor, single point] |  |
| COc1ccc(-c2nc(CS(=O)CC(=O)NCc3ccco3)c(C)o2)cc1OC (stereo not given) | inconclusive: 31.6 µM [inhibitor, single point] |  |
| Cc1cc(/C=N/NC(=O)c2cccc([N+](=O)[O-])c2)c(C)n1-c1ccc(Cl)cc1Cl | inconclusive: 14.1 µM [inhibitor, partial curve] |  |
| Cc1ccc(C(=O)Nc2cnc3ccccn3c2=O)cc1 | inconclusive: 39.8 µM [inhibitor, single point] |  |
| CCOC(=O)C1=C(N)Oc2cc(O)ccc2C1c1cccc([N+](=O)[O-])c1 (stereo not given) | inconclusive: 20 µM [inhibitor, single point] |  |
| O=C(CNC(=S)NC(=O)C1CCCCC1)c1ccccc1 |  | inactive: -17.6% |
| Cc1nnc(NC(=O)c2c(-c3ccccc3)noc2C)s1 |  | inactive: -3.75% |
| CCCCN(CCCC)C(=O)c1c[nH]c2ccc(S(=O)(=O)Nc3cccc(Cl)c3C)cc2c1=O |  | inactive: -9.95% |
| COc1ccc(/C(O)=C2/C(=O)C(=O)N(CCCN(C)C)C2c2ccc(C)o2)cc1Cl (stereo not given) |  | inactive: -8.32% |
| CCOC(=O)c1cc(NC(=O)c2ccc(F)cc2)c(=O)n2c1oc1ccc(Cl)cc12 |  | inactive: 0.534% |
| CCCSCCCNC(=O)Cn1c(-c2cccs2)cc2ccccc21 |  | inactive: -3.62% |
| CN(C)c1ccc(CNCCC(Cc2ccccc2)c2ccco2)cc1 (stereo not given) | inconclusive: 39.8 µM [inhibitor, single point] |  |
| CCCCNS(=O)(=O)c1ccc2nc(SCC(=O)c3ccc(C#N)cc3)[nH]c2c1 | inconclusive: 25.1 µM [inhibitor, partial curve] |  |
| Cc1nc2ccc(NC(=O)COc3ccccc3F)cc2s1 | inconclusive: 5.01 µM [inhibitor, partial curve] |  |
| CCOC(=O)c1c(C)[nH]c(-c2csc(C)n2)c1C | inconclusive: 25.1 µM [inhibitor, partial curve] |  |
| CCCN1C(C(=O)c2ccccc2)=C(OC(=O)COc2ccc(C)cc2)c2ccccc2S1(=O)=O | inconclusive: 11.2 µM [inhibitor, partial curve] |  |
| COC(=O)CN1C(C(=O)c2ccccc2)=C(OC(=O)c2ccccc2)c2ccccc2S1(=O)=O | inconclusive: 10 µM [inhibitor, partial curve] |  |

| Compound | Potency | activity, negative = inhibition |
| --- | --- | --- |
| COc1cccc(N2CCN(C(=O)c3ccc4nc(N5CCC(C)CC5)sc4c3)CC2)c1 | inconclusive: 11.2 µM [inhibitor, partial curve] |  |
| OCCn1c(CSc2nnc(-c3ccco3)n2-c2ccccc2)nc2ccc(Cl)cc21 |  | inactive: -9.35% |
| CC(=O)Nc1cccc(-c2nnc(SCC(=O)c3cc([N+](=O)[O-])ccc3Cl)o2)c1 | inconclusive: 7.94 µM [inhibitor, partial curve] |  |
| COC(=O)c1sccc1NC(=S)N(C)C1CCCCC1 | inconclusive: 44.7 µM [inhibitor, single point] |  |
| CCCc1nc(SCC(=O)N2CCc3ccccc3C2)c2ccccc2n1 | inconclusive: 39.8 µM [inhibitor, single point] |  |
| O=C(NCC(c1ccc2c(c1)OCO2)N1CCN(c2ccccc2)CC1)C(=O)Nc1ccccc1F (stereo not given) | inconclusive: 5.01 µM [inhibitor, single point] |  |
| CCOc1cc(N2CCOCC2)c(OCC)cc1NC(=O)c1ccc(OC(C)C)cc1 | inconclusive: 15.8 µM [inhibitor, partial curve] |  |
| COc1cc(/C=C(/C#N)c2nc3ccccc3[nH]2)ccc1OCC(=O)Nc1ccccc1C(C)C | inconclusive: 8.91 µM [inhibitor, partial curve] |  |
| CCc1nc(NCc2ccco2)c2oc3ccccc3c2n1 | inconclusive: 14.1 µM [inhibitor, partial curve] |  |
| C/C(=N\NC(=O)c1ccc(Cl)cc1)c1ccc(N2CCOCC2)cc1 | inconclusive: 7.94 µM [inhibitor, partial curve] |  |
| COc1cc(Cl)c(C)cc1NC(=O)CSc1cc(Cl)ccc1Cl | inconclusive: 3.55 µM [inhibitor, full curve] |  |
| O=C(O)C1OC(Oc2c(-c3ccc(O)c(O)c3)oc3cc(O)cc(O)c3c2=O)C(O)C(O)C1O (stereo not given) | inconclusive: 11.2 µM [inhibitor, partial curve, poor fit] |  |
| C[C@@H](O)CCC[C@H](O)/C=C/[C@@H]1[C@@H](C/C=C\CCCC(=O)O)[C@@H](O)C[C@H]1O |  | inactive: -8.09% |
| Cc1[nH]n(-c2ccccc2)c(=O)c1/C=N/c1nn[nH]n1 | inconclusive: 39.8 µM [inhibitor, partial curve, poor fit] |  |
| NS(=O)(=O)c1ccc(CCNC(=O)c2ccc3c(c2)OCCO3)cc1 |  | inactive: -16.8% |
| CCOC(=O)COn1c(=O)c(C)[n+]([O-])c2ccccc21 | inconclusive: 44.7 µM [inhibitor, single point] |  |
| COc1ccccc1-c1nn(CCC(=O)Nc2ccc(C)cc2)c2nc(C)cc(C)c12 |  | inactive: -14.6% |
| CCN1CCN(CCCNC(=O)Cn2nc(C)n3c(cc4c(OC)cccc43)c2=O)CC1 |  | inactive: -0.344% |
| O=C(COC(=O)c1c2c(nc3ccccc13)/C(=C\c1cccs1)CCC2)Nc1ccccc1 | inconclusive: 1.78 µM [inhibitor, partial curve, poor fit] |  |
| COC(=O)Cc1ccc(NC(=S)Nc2ccccn2)cc1 |  | inactive: -3.71% |
| COCCNc1nc(SCC(=O)N2CCN(c3ccccc3)CC2)nc2ccccc12 | inconclusive: 22.4 µM [inhibitor, partial curve] |  |
